This data set concerns CCRIS mutagenicity, Ames/micronucleus/aberration tests. In words: CCRIS mutagenicity studies.
The mark [1] stands for this setting: Test System: MOUSE LYMPHOMA, Strain/Indicator: L5178Y (TK+/TK-), Metabolic Activation: NONE, Method: SUSPENSION/PLATE.
The mark [2] stands for this setting: Test System: MOUSE LYMPHOMA, Strain/Indicator: L5178Y (TK+/TK-), Metabolic Activation: RAT, LIVER, S-9, AROCLOR 1254, Method: SUSPENSION/PLATE.
Where [3] appears, read: Test System: AMES SALMONELLA TYPHIMURIUM, Strain/Indicator: TA100, Metabolic Activation: NONE, Method: PREINCUBATION
[4] abbreviates: Test System: AMES SALMONELLA TYPHIMURIUM, Strain/Indicator: TA98, Metabolic Activation: RAT, LIVER, S-9, AROCLOR 1254, Method: STANDARD PLATE.
Where [5] appears, read: Test System: AMES SALMONELLA TYPHIMURIUM, Strain/Indicator: TA1537, Metabolic Activation: HAMSTER, LIVER, S-9, AROCLOR 1254, Method: STANDARD PLATE.
Where [6] appears, read: Test System: AMES SALMONELLA TYPHIMURIUM, Strain/Indicator: TA1538, Metabolic Activation: HAMSTER, LIVER, S-9, AROCLOR 1254, Method: STANDARD PLATE.
Setting [7] is: Test System: AMES SALMONELLA TYPHIMURIUM, Strain/Indicator: TA1538, Metabolic Activation: HAMSTER, LIVER, S-9, Method: STANDARD PLATE.
The mark [8] stands for this setting: End Point: In vitro chromosomal aberrations, Test System: Chinese hamster lung (CHL/IU) cells, Metabolic Activation: None.

Entries after “also recorded” stand apart in the source; their conditions may differ. A number of entries come with more than one value. They are shown here; other results are not. How the calls were made is not given here. An entry can have further records. The values listed for one entry differ, and nothing given here explains why; some may be repeats, others may stem from another dose, organism or construct than stated. Records carry a tag for their origin. A, B and so on number the origins entry by entry. Additions like (4×) stand for listed records that agree.

Consider `[CH3][Hg][Cl]`, for which, under “End Point: IN VITRO CHROMOSOMAL ABERRATIONS, Test System: HUMAN PERIPHERAL LYMPHOCYTES, Metabolic Activation: NONE”, the mutagenic call is “active; positive (structural changes and ploidy); also recorded: active; positive (structural changes) (2×)”.
On to `CCN(CC)c1ccc2c(-c3ccc(S(=O)(=O)O)cc3S(=O)(=O)[O-])c3ccc(=[N+](CC)CC)cc-3oc2c1`, for which, for the setting “Test System: Mouse lymphoma, Strain/Indicator: L5178Y (tk+/tk-), Metabolic Activation: Rat, Liver, S-9, Aroclor 1254, Method: Suspension/plate”, the mutagenic call is “active; inconclusive (previous evaluation positive); also recorded: inactive; negative”.
For the compound `CCC(C)Nc1ccc(NC(C)CC)cc1` (stereo not drawn), the mutagenic call (End Point: IN VITRO CHROMOSOMAL ABERRATIONS, Test System: CHINESE HAMSTER LUNG CELLS (CHL), Metabolic Activation: NONE) was “inactive; negative; authors describe results at highest dose for 24 hr treatment as equivo; also recorded: inactive; negative; authors describe results at highest dose as equivocal”.
On to `CC(=O)CC(=O)Nc1ccc(C)cc1`, for which, where the note is “Test System: E. COLI, Strain/Indicator: WP2UVRA/PKM101, Metabolic Activation: RAT, LIVER, S-9, PHENOBARBITAL AND BETA-NAPHTHOFLAVONE, Method: PREINCUBATION”, the mutagenic call was “active; positive and inactive; negative”.
With `O=C(Cl)c1ccc([N+](=O)[O-])cc1`, the mutagenic call (Test System: AMES SALMONELLA TYPHIMURIUM, Strain/Indicator: TA98, Metabolic Activation: NONE, Method: PREINCUBATION) is “inactive; negative [study A] and active; positive [study B]”; the mutagenic call (Test System: Ames Salmonella typhimurium, Strain/Indicator: TA98, Metabolic Activation: None, Method: Preincubation) is “active; positive (weak response) and active; positive”; the mutagenic call (Test System: Ames Salmonella typhimurium, Strain/Indicator: TA98, Metabolic Activation: Rat, Liver, S9, Sodium phenobarbital and 5,6-benzoflavone (10%), Method: Preincubation) is “inactive; negative and active; positive”; the mutagenic call (Test System: Ames Salmonella typhimurium, Strain/Indicator: TA100, Metabolic Activation: None, Method: Preincubation) was “inactive; negative and active; positive”.
In the case of `Oc1ccccc1-c1ccccc1`, the mutagenic call was “active; positive [study A]; also recorded: inactive; negative. reevaluation of results: negative [study B]” under setting [1] and “active; positive [study A]; also recorded: active; positive. reevaluation of results: positive [study B]” under setting [2].
With `CCOc1ccc([N+](=O)[O-])cc1`, the mutagenic call under setting [3] was “inactive; negative [study A] and active; positive [study B]”.
In the case of `COc1ccc(N)c(OC)c1`, the mutagenic call reads like this: (Test System: AMES SALMONELLA TYPHIMURIUM, Strain/Indicator: TA98, Metabolic Activation: HAMSTER, LIVER, S-9, AROCLOR 1254, Method: STANDARD PLATE) “inactive; negative [0.3 to 1000 µg/plate] and active; positive [0.3 to 10000 µg/plate] and active; positive [10 to 10000 µg/plate]”; under setting [4], “inactive; negative [0.3 to 10000 µg/plate] and inactive; negative [10 to 10000 µg/plate] and active; positive [10 to 10000 µg/plate]”; under setting [5], “inactive; negative [0.3 to 10000 µg/plate] and inactive; negative [0.3 to 333.3 µg/plate] and active; positive [10 to 10000 µg/plate]”; under setting [6], “active; positive [0.3 to 10000 µg/plate] and inactive; negative [0.3 to 333.3 µg/plate] and active; positive [10 to 10000 µg/plate]”; under setting [7], “inactive; negative [0.3 to 10000 µg/plate] and inactive; negative [0.3 to 333.3 µg/plate] and active; positive [10 to 10000 µg/plate]”.
As to `C=C(C)C(=O)OCCOC(=O)C(=C)C`, the mutagenic call runs as follows: under setting [1], “inactive; negative [study A]; also recorded: active; positive. reevaluation of results: equivocal [study B]”; under setting [2], “active; positive [study A]; also recorded: active; positive. reevaluation of results: positive [study B]”; (Test System: Mouse lymphoma, Strain/Indicator: L5178Y (tk+/tk-), Metabolic Activation: None, Method: Suspension/plate) “active; positive and inactive; negative”.
Turning to `C=C(C)CN(CC)c1c([N+](=O)[O-])cc(C(F)(F)F)cc1[N+](=O)[O-]`, where the note is “End Point: In vitro chromasomal aberrations, Test System: Chinese hamster ovary (CHO) cells, Metabolic Activation: Rat, Liver, S-9”, the mutagenic call is “inactive; negative; also recorded: inactive; negative. a positive response at 85 ug/ml was thought to be possibly attributabl”.
Turning to `O=c1cc(CO)occ1O`, the mutagenic call under setting [3] was “active; positive [study A] and inactive; negative [study B] and active; positive [study C]”.
Take `CC(=O)Nc1ccc(C(=O)CCl)cc1`: the mutagenic call (Test System: AMES SALMONELLA TYPHIMURIUM, Strain/Indicator: TA98, Metabolic Activation: MOUSE, LIVER, S-9, AROCLOR 1254, Method: STANDARD PLATE) is “inactive; negative and active; positive”; the mutagenic call (Test System: AMES SALMONELLA TYPHIMURIUM, Strain/Indicator: TA98, Metabolic Activation: NONE, Method: STANDARD PLATE) is “inactive; negative and active; positive”; the mutagenic call under setting [5] is “inactive; negative and active; positive”; the mutagenic call (Test System: AMES SALMONELLA TYPHIMURIUM, Strain/Indicator: TA1537, Metabolic Activation: MOUSE, LIVER, S-9, AROCLOR 1254, Method: STANDARD PLATE) was “inactive; negative and active; positive”; the mutagenic call (Test System: AMES SALMONELLA TYPHIMURIUM, Strain/Indicator: TA1537, Metabolic Activation: NONE, Method: STANDARD PLATE) was “inactive; negative and active; positive”; the mutagenic call (Test System: AMES SALMONELLA TYPHIMURIUM, Strain/Indicator: TA1537, Metabolic Activation: RAT, LIVER, S-9, AROCLOR 1254, Method: STANDARD PLATE) is “inactive; negative and active; positive”. In addition, the mutagenic call by setting is: (Test System: AMES SALMONELLA TYPHIMURIUM, Strain/Indicator: TA1537, Metabolic Activation: RAT, LIVER, S-9, Method: STANDARD PLATE) “inactive; negative and active; positive”; under setting [6], “inactive; negative and active; positive”; under setting [7], “inactive; negative and active; positive”; (Test System: AMES SALMONELLA TYPHIMURIUM, Strain/Indicator: TA1538, Metabolic Activation: MOUSE, LIVER, S-9, AROCLOR 1254, Method: STANDARD PLATE) “inactive; negative and active; positive”; (Test System: AMES SALMONELLA TYPHIMURIUM, Strain/Indicator: TA1538, Metabolic Activation: MOUSE, LIVER, S-9, Method: STANDARD PLATE) “inactive; negative and active; positive”; (Test System: AMES SALMONELLA TYPHIMURIUM, Strain/Indicator: TA1538, Metabolic Activation: NONE, Method: STANDARD PLATE) “inactive; negative and active; positive”.
Take `CC(=O)OCc1cc(C(C)=O)ccc1OC(C)=O`: the mutagenic call (Test System: AMES SALMONELLA TYPHIMURIUM, Strain/Indicator: TA98(PKM101), Metabolic Activation: NONE, Method: STANDARD PLATE) was “inactive; negative [study A] and active; positive [study B]”.
Regarding `ClC1C(Cl)C(Cl)C(Cl)C(Cl)C1Cl` (stereo not drawn), the mutagenic call under setting [4] was “inactive; negative [sample A, study B] and active; positive [sample B, study A] and inactive; negative [sample B, study B]”.
For `Oc1c(Cl)c(Cl)c(Cl)c(Cl)c1Cl`, the mutagenic call (End Point: IN VITRO CHROMOSOMAL ABERRATIONS, Test System: CHINESE HAMSTER OVARY CELLS, Metabolic Activation: RAT, LIVER, S-9, AROCLOR 1254) is “active; positive; statistically significant increase, but not dose-related; also recorded: active; positive”.
In the case of `O=C1c2ccccc2C(=O)c2ccccc21`, the mutagenic call is, setting by setting: (Test System: AMES SALMONELLA TYPHIMURIUM, Strain/Indicator: TA98, Metabolic Activation: RAT, LIVER, S-9, AROCLOR 1254 (10%), Method: PREINCUBATION) “inactive; negative; 100% pure and inactive; negative and active; positive; 99.4% pure”; (Test System: AMES SALMONELLA TYPHIMURIUM, Strain/Indicator: TA100, Metabolic Activation: RAT, LIVER, S-9, AROCLOR 1254 (10%), Method: PREINCUBATION) “inactive; negative; 100% pure and inactive; negative and active; positive; 99.4% pure”; (Test System: AMES SALMONELLA TYPHIMURIUM, Strain/Indicator: TA1537, Metabolic Activation: NONE, Method: PREINCUBATION) “inactive; negative [study A] and inactive; negative; 99.8% pure [study B]”.
As for `c1ccc(Nc2ccccc2)cc1`, the mutagenic call under setting [8] is “inactive; negative. toxicity at 0.10 mg/ml; also recorded: active; positive (structural changes) (2×)”.
Turning to `CN(C)c1ccccc1`, the mutagenic call under setting [8] is “active; positive (structural changes and ploidy); weak response. precipitation in cultur; also recorded: active; positive (structural changes). precipitation at all doses, toxicity and precipit; also recorded: active; positive (structural changes). precipitation at 0.4, 0.6 and 0.8 mg/ml”.
Regarding `Cc1cnc2ccccc2c1`, for the setting “Test System: AMES SALMONELLA TYPHIMURIUM, Strain/Indicator: TA100, Metabolic Activation: RAT, LIVER, S-9, Method: PREINCUBATION”, the mutagenic call was “active; positive [study A] and inactive; negative [study B]”.
Take `O=NN1CCC[C@H]1c1cccnc1`: the mutagenic call (Test System: AMES SALMONELLA TYPHIMURIUM, Strain/Indicator: TA100, Metabolic Activation: RAT, LIVER, S-9, AROCLOR 1254, Method: STANDARD PLATE) is “active; positive [study A] and inactive; negative [study B]”.

For the origin of these results see PubChem BioAssay AID1259407 (Chemical Carcinogenesis Research Information System (CCRIS), 2018).
